Reference: the supplement of paper PMC11417369
± gives the standard deviation of the averaged measurements. This is one part of the list.

Test system: PfAP2-LT AP2 domain (GST-tagged)
Experiment: gcPBM binding intensity (ln(normalized median fluorescence intensity)); higher = stronger DNA binding
In short: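 After 1 h on an Agilent 4 × 180k array of primer-extended double-stranded 36-bp intergenic genomic probes and negative controls, bound GST-tagged P. falciparum DNA-binding domains were detected with Alexa488 anti-GST antibody and scanned at 488 nm. The domains had been expressed in E. coli, and binding took place in 1× PBS with 1% milk, 0.2 mg/ml BSA, 0.5% salmon testes DNA and 0.03% Triton X-100. Binding intensity is the highest Masliner-normalised natural-log median intensity across replicate spots of either probe orientation.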

Sequence	gcPBM binding intensity (ln)
TATGAAATTAGAATTACACACAGGAAAATAAAATGC [CACACA_site6822]	9.16 ± 0.47
AAAAAAAATCAAATGGGTACTTATTCTTAATAATAT [XGTACX_site3792]	8.61 ± 0.33
TTTGCGTAGAAATGTGTGCACTGATATTTATAATAA [GTGCAC_site9526]	9.03 ± 0.43
TGAACTCATAGGAAAACACACATATGGGTAATATAT [CACACA_site187]	9.09 ± 0.37
ATTTTCCTTTTACCACGTACACATAAAAACGTTATA [XGTACX_site3595]	8.85 ± 0.41
ATCATAAATATAGCAACACACGGATTACATAAAATA [CACACA_site2796]	9.04 ± 0.5
TTGTAATAAATAAAAGTGCAGATATGGTTCCACTAA [GTGCAC_site9942]	8.59 ± 0.48
TTAAAAAAATAATTAACACACACATGTATATCTATA [CACACA_site9026]	9.03 ± 0.43
ACATATTCATATGGAAGTACGATAATGTAGTCATAT [XGTACX_site7080]	8.96 ± 0.39
ATATATACATACAAATTAATTACGAGGAATATATTA [XGTACX_negctrl_site417]	8.79 ± 0.37
AATGAACTCACGAGCACACACACACCGATATATATA [CACACA_site4710]	10.1 ± 0.35
TATATATATTTAAAGGTGCAGATGCCAGTGTATATT	8.85 ± 0.41
ATAAATATATTTAAATGTACATAATATATATATATA [XGTACX_site5137]	8.76 ± 0.38
GTAAAAAAATTAAAAATTAACAAGGAATTAAGTATA [CACACA_negctrl_site1688]	8.59 ± 0.56
GGAACTTATTTTTATACACACATATGTGCATATTAT [CACACA_site629]	9.38 ± 0.47
TATACATATATATACACACACACATATATATATATA [CACACA_site1299]	9.9 ± 0.42
AGGAAACAAGAAATGAAGAATCATGTAGAAGGCCCA [GTGCAC_negctrl_site187]	8.82 ± 0.5
TATATAACCGAGTGCACACACAAAAAAAAAGTGAAC [CACACA_site6806]	9.51 ± 0.45
AATAATATAAATATTACACACTAATTGTATTATAGA [CACACA_site6347]	8.72 ± 0.4

Sequence	gcPBM binding intensity (ln)
TATTAAATATTGTATACATGCAAATACTAGAAAATT [TGCATGCA_site370]	8.76 ± 0.3
TAAATTAAAAAAAATACACACACACCGACACATATA [CACACA_site9084]	9.84 ± 0.26
TTCGTAACTGATTCAACACACAAAAGGGGGAAAATT [CACACA_site1754]	9.06 ± 0.11
AAAAAGAAGAATAATACACACAAATTACTTTATATA [CACACA_site6984]	8.91 ± 0.48
ATATTATAGAAATATACACACATTGTTTTATAGCAT [CACACA_site7177]	9.01 ± 0.37
AATTACAAATATTCATGTACATATTTATAAATACAT [XGTACX_site5430]	8.8 ± 0.35
ATATATATATATATGTGTACATATATTAAGATATAT [XGTACX_site1065]	9.35 ± 0.057
TATGTTATATAATATTGTACACAAAATGGTTTCTAT [XGTACX_site7686]	8.75 ± 0.37
ATGATGTGCTTTAAAAGTACTTAAGTTATATTCTTT [XGTACX_site7127]	8.7 ± 0.39
AAAATTAAAATTTTCACACAGATATATTTACAATTT [CACACA_site5692]	8.62 ± 0.45
ATAACACAAAATTGTTGTACACGTGTTAATAAGTGA [XGTACX_site4452]	9.1 ± 0.42
ATATATATGAAACACACACACAAAAAAAAAAAAAAA [CACACA_site3647]	9.45 ± 0.57
TAAAGTTATGCAATAACACACATATACAATACATAT [CACACA_site6698]	9.12 ± 0.32
AATATTTATATAAATGCATGCTGATACAACAGTCTT [TGCATGCA_site21]	8.84 ± 0.34
AGGTATGTCTATAAATGTACATATGAGTTCAATTTC [XGTACX_site2244]	8.75 ± 0.35
CACAGTGATATAAAAACACACATGAATTCTAATTTC [CACACA_site6884]	8.96 ± 0.48
CATAAAAATATTAATAAACACACAATCAGATATTGA [CACACA_site9032]	8.87 ± 0.45
AAATATATATAAACAAGTACATATTTAAAAAAAGGA [XGTACX_site2631]	8.86 ± 0.42
ATAAATATATATTTACGTACATATTATATATATATA [XGTACX_site6172]	8.89 ± 0.28

Sequence	gcPBM binding intensity (ln)
AAAAAAATTTCACATTGTACTTTAATAATATACTAC [XGTACX_site7264]	8.59 ± 0.42
ACATATAAATTGTGTACACATATATATATATTTTTT [CACACA_site5946]	8.94 ± 0.36
GAATGCATGTAAATATGTACATATATTTAAAAATTT [XGTACX_site6032]	8.91 ± 0.43
TGTTAAAAGGTTAAATTAAAATAACCTCCGGAAATT [GTGCAC_negctrl_site236]	8.4 ± 0.4
TTTATATGTATACAAACATATAAATATAAATGTATT [TGCATGCA_negctrl_site346]	8.55 ± 0.34
TGTTCTATGATTTGTACACACTTTTTTTTAAAATGC [CACACA_site5558]	9.03 ± 0.47
TATATATACATATACACACACACACCGATATATATA [CACACA_site8706]	9.9 ± 0.29
GTTTTGTACATATTCTCACACATATAAAAATACCCA [CACACA_site4446]	8.77 ± 0.42
TTCATAATAAAAAGGTGTACATATATATATATATAT [XGTACX_site2829]	9.74 ± 0.3
AAGCATTTAATGTTTTATATAACATGTATTTTTTAT [CACACA_negctrl_site673]	8.72 ± 0.39
TATCGAGCCATTTTTACATGCAATTATACATAATTT [TGCATGCA_site987]	8.88 ± 0.36
CATGTATACTATAATACACACTATAAAATATACACC [CACACA_site7121]	9.12 ± 0.35
TTCAAATAATTTAAATGTACGTTGCTTTATTAAAAG [XGTACX_site3674]	8.24 ± 0.36
TAAAATGAATATAGGTGTACTTAAAAAAAAGTAAAA [XGTACX_site4613]	8.56 ± 0.62
TAAATTCTTTATAATCGTACATAAATAGAAAAATAA [XGTACX_site601]	8.32 ± 0.44
TAAAAGAAATAATATACACACATATATAAAAATAAA [CACACA_site1329]	8.94 ± 0.41
CTTACTTACTTACTCACACACATATACAAAGAAAAA [CACACA_site3347]	9.1 ± 0.35
AAATATATGTTATATGTGCACTTTTTTTTTTTTTTT [GTGCAC_site9667]	8.76 ± 0.48
TTTTACTAAATATATACACACATTATACATATATAT [CACACA_site9081]	9.2 ± 0.46
